# According to PubChem BioAssay AID1508642 (National Center for Advancing Translational Sciences (NCATS), 2021):
# Hit rate of the full screen: of about 43,000 compounds, about 200 (0.47%) were called active. About 12% were inconclusive and are not listed. Calls follow the shape of the dose curve; as a rule, active = well fitted cell-killing curve with a large enough effect; inconclusive = small, poorly fitted or top-dose-only effect, or effect the other way; inactive = flat fitted curve, though single readings scatter. Some of the results follow.
# Assay: Cell viability qHTS assay in S16 Pmp22-F2sN cells; also: nearly all actives have a fitted effect of over 65% in size
# Conditions: S16 Pmp22-F2sN Schwann cells (luciferase reporters placed in the Pmp22 gene) viability, CellTiter-Glo, 24 h; series mostly up to 57.5 µM; activity change, negative = cytotoxicity: at the top concentration
# Summary of the method: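 Rat S16 Schwann reporter line, 24 h treatment with library compounds delivered at 23 nL per well. Cell viability by CellTiter-Glo luminescence.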
# % is scaled to controls: 0 for no effect and ±100 for the full control effect.
row,SMILES,"activity change, negative = cytotoxicity"
1,Cc1cccc(NC(=O)c2cc(S(=O)(=O)N3CCCCCC3)cn2C)c1C,inactive: 7.17%
2,Cc1ccc(NC(=O)Cn2cc(C(=O)C3CC3)c3ccccc32)cc1C,inactive: 1.55%
3,Cc1ccccc1CSc1ccc(-c2cccs2)nn1,inactive: -4.06%
4,COc1ccc(OCc2nc(-c3ccc(-n4cccc4)cc3)no2)cc1,inactive: 0.245%
5,CCC(=O)N1CCc2cc(CNS(=O)(=O)c3cccs3)ccc21,inactive: -9.04%
6,CCCCOc1ccc(CNC(=O)c2ccc3c(c2)N(C)C(=O)C2CCCCN32)cc1 (stereo not drawn),inactive: -2.26%
7,COc1ccc(CNC(=O)CCc2nc(-c3ccc(OC)cc3)no2)cc1,inactive: -2.42%
8,Cc1cc(C)c2c(n1)sc1c(=O)n(-c3ccccc3C(F)(F)F)nnc12,inactive: -0.667%
9,CCSc1nc2c([nH]c3ccccc32)c(=O)n1-c1ccc(F)cc1,inactive: -1.36%
10,Cc1ccc(OCCSc2nc3ccc(NC(=O)c4ccc(F)cc4)cc3s2)cc1,inactive: 0.454%
11,CCOC(=O)C(CC)Sc1c(CC)cnc2c1c(=O)n(C)c(=O)n2C (stereo not drawn),inactive: 8.83%
12,CC(=O)N1CCc2c(sc3c2c(=O)n(Cc2ccccc2)c(=O)n3Cc2cc(C)ccc2C)C1,inactive: 1.08%
13,COc1ccc2c(c1)Cc1sc(NC(=O)c3cccc(Br)c3)nc1-2,inactive: 11.4%
14,CC1CN(C(=O)N2CCC(C(=O)NCCCc3ccccc3)CC2)c2ccccc2O1 (stereo not drawn),inactive: 4.91%
15,Cc1c(Cl)cccc1Nc1nc2ccc(C(=O)c3ccccc3)cc2n2cnnc12,inactive: 0.649%
16,Cc1ccc(CNC(=O)CN2C(=O)C3(SCC(=O)N3c3ccc(F)cc3)c3ccccc32)cc1 (stereo not drawn),inactive: 0.938%
17,Cc1ccc(NC(=O)Cn2c(-c3cncs3)nc3ccccc32)c(Br)c1,inactive: 0.848%
18,CCCCCn1c(CCNC(=O)c2cccc(C)c2)nc2ccccc21,inactive: -6.7%
19,Cc1ccc(/C=C/c2onc(C)c2S(=O)(=O)N2CCC(C(=O)Nc3ccc(Br)c(C)c3)CC2)cc1,inactive: 18.4%
20,CCC(CC)C(=O)Nc1cc(-c2ccccc2F)nn1-c1ccccc1,inactive: 10.7%
21,CNS(=O)(=O)c1cn(CC(=O)Nc2ccc(OC)cc2OC)cc1S(=O)(=O)NC,inactive: 13.2%

row,SMILES,"activity change, negative = cytotoxicity"
1,NS(=O)(=O)c1ccc(NC(=O)CSc2ccc3ccccc3n2)cc1,inactive: 3.18%
2,Cc1ccc(S(=O)(=O)c2cn(CC(=O)Nc3cccc(C)c3)c3cc4c(cc3c2=O)OCO4)cc1,inactive: 3.1%
3,CC1CCC(C(=O)NC(C(=O)OCC(=O)c2ccc(Br)cc2)C(C)C)CC1 (stereo not drawn),inactive: -0.111%
4,Cc1ccc(CNC(=O)c2nnc(Cc3ccc(Cl)cc3)o2)cc1,inactive: -1.71%
5,CN(C(=O)c1ccc2c(Cl)c3c(nc2c1)CCC3)c1ccccc1F,inactive: 5.25%
6,CCN(CC)C(=O)Cn1c(=O)n(-c2ccccc2)c(=O)c2c3c(sc21)CCC3,inactive: 13.1%
7,Cc1ccccc1/C=C(\C#N)c1nc(-c2ccc(Cl)cc2)cs1,inactive: 24.5%
8,Cc1csc2nc(-c3ccc(NS(=O)(=O)c4cc(F)ccc4F)cc3)cn12,inactive: 1.24%
9,CCC(C)NC(=O)c1nn(-c2ccc(C)cc2)nc1CO (stereo not drawn),inactive: 12%
10,COc1ccc(OC(=O)c2nc(SCc3ccccc3F)ncc2Cl)cc1,inactive: -0.991%
11,Cc1ccc(NC(=O)Cn2c(=O)n(Cc3ccco3)c(=O)c3oc4ccccc4c32)cc1C,inactive: -1.66%
12,Cc1cccc(CNC(=O)C2CCC(CNS(=O)(=O)c3ccc4c(c3)CCCC(=O)N4)CC2)c1 (stereo not drawn),inactive: -24.1%
13,O=C(Nc1ccc2nc(SCC(=O)N3CCOCC3)sc2c1)c1cccc(Br)c1,inactive: -13.4%
14,Cc1cccc(CN2C(=O)c3ccccc3Sc3ccc(C(=O)NC4CCCCC4)cc32)c1,inactive: -6.13%
15,CCC(=O)C1=C(c2ccc(F)cc2)N(C(=O)CC)n2c(nnc2-c2ccc(OC)cc2)S1,inactive: -0.322%
16,O=C(CSc1nccn1-c1cccc(Cl)c1)Nc1ccc2c(c1)OCO2,inactive: 2.01%
17,Cn1c(=O)oc2cc(S(=O)(=O)CCC(=O)N3CCN(c4ccccc4F)CC3)ccc21,inactive: -10.1%
18,O=C(CCn1c(=O)c2cccn2c2cccnc21)N1CCN(c2ccccc2)CC1,inactive: 2.17%
19,CCc1nn(CC(=O)N2CCN(c3ccc(OC)cc3)CC2)c(=O)c2cc3sccc3n12,inactive: -16.3%
20,O=C(CSc1nc(=O)[nH]c2c1CCC2)NCc1ccccc1Cl,inactive: 16.7%
21,Cc1nc2ccccc2c(=O)n1-c1ccc(NC(=O)c2ccccc2[N+](=O)[O-])cc1,inactive: -2.84%

row,SMILES,"activity change, negative = cytotoxicity"
1,CCn1c(SCC(=O)Nc2ccccc2C(=O)OC)nc2ccsc2c1=O,inactive: 1.78%
2,Cc1ccc(-c2cc(C(=O)Oc3ccc(C#N)cc3)no2)cc1,inactive: -0.384%
3,CCC(=O)NNc1ncnc2c1cnn2-c1ccc(C)c(Cl)c1,inactive: 2.35%
4,COc1ccc(C2CC(=O)Nc3c2c(=O)[nH]c2nc4ccccc4n32)cc1 (stereo not drawn),inactive: 2.4%
5,CCOc1cc(-c2ccc(OC(=O)c3ccccc3Cl)c(OC)c2)cc(=O)c2c(C)oc(C)c12,inactive: 1.06%
6,Cc1cccc(C)c1NC(=O)c1ccc2c(c1)nnn2C1CCCC1,inactive: -15.2%
7,COc1ccc(-c2nn3c(=O)cc(CN4CCN(C(=O)/C=C/c5ccccc5)CC4)nc3s2)cc1,inactive: -15.9%
8,CC(=O)c1ccc(N2CCN(S(=O)(=O)c3ccc(-c4coc(C)n4)cc3)CC2)cc1,inactive: -3.48%
9,CCn1cc(C(=O)Nc2cccc(Cl)c2)c2cc(OC)c(OC)cc2c1=O,inactive: -29.4%
10,Cc1ccccc1COC(=O)c1nn(-c2ccccc2)nc1N,inactive: 4.49%
11,COc1ccccc1N1CCN(C(=O)Cn2c(=O)n3nc(-c4cccc(F)c4)nc3c3ccccc32)CC1,inactive: 1.03%
12,CCCCN(CC)CCNC(=O)C1CCN(S(=O)(=O)c2cccc3nsnc23)CC1,inactive: 2.31%
13,Cc1nn(CC(=O)NC2CCC(C)CC2)c(=O)c2c1sc1ccccc12 (stereo not drawn),inactive: 4.09%
14,Cc1ccc2oc(-c3ccc(NC(=O)CCC(=O)O)cc3)nc2c1,inactive: 5.44%
15,Cc1ccc(NC(=O)CCc2c(C)nc3c(-c4ccc(F)cc4)c(C)nn3c2C)cc1F,inactive: 0.576%
16,COc1cc(NC(=O)CN2CCN(c3ccc(F)cc3)CC2)cc(OC)c1,inactive: 0.801%
17,CCOc1ccc(NC(=O)c2sc3nc4n(c(=O)c3c2C)CCC4)cc1,inactive: 0.338%
18,COC(=O)N1CCCc2cc(S(=O)(=O)NCc3ccccc3)ccc21,inactive: 0.767%
19,Cc1ccc(C)c(Nc2cc(C(=O)NC3CCCC3)c3ccccc3n2)c1,inactive: 7%
20,COc1ccc(NC(=O)CC2C(=O)N(c3ccc(OC)cc3)C(=O)N2CCC2=CCCCC2)cc1 (stereo not drawn),inactive: -2.18%
21,COc1ccc(CCNC(=O)Cc2c(C)c3cc4c(C(C)(C)C)coc4c(C)c3oc2=O)cc1,inactive: 2.08%
